Test results as given in patent publication EP4692105A1, “CYCLIC POLYPEPTIDE COMPOUND AND USE THEREOF” (Bivision Pharmaceuticals, Inc, priority 2023, dated 2024).
At least one structure is not confirmed: it was looked up by name or label, or the drawing left a doubt. Numbered stars: 1 amine (or outer) side, 2 acyl side, 3 side chain; on linkers, the order of the positions; unused ones are H or OH. Bridge positions count the residues as written; N and C are the ends. Square brackets hold non-standard residues; d marks the D form. Side chains are listed from the residue outwards. Peptide text beside a SMILES is read from it. * marks the point of attachment. DOTA = O=C(O)CN1CCN(CC(=O)O)CCN(CC(=O)*)CCN(CC(=O)O)CC1; mXylylene = c1cc(C[*:1])cc(C[*:2])c1; Cha = N[C@@H](CC1CCCCC1)C(=O)O; Aze = O=C(O)[C@@H]1CCN1; Dab = NCC[C@H](N)C(=O)O; Aoc = NCCCCCCCC(=O)O; CO = O=C([*:1])[*:2]; NHBu = CCCCN*

How the values were obtained:
[1] = biological target: dipeptidyl peptidase IV (DPPIV) (Homo sapiens, UniProt P27487); assay: Protease inhibition selectivity assay (fluorogenic substrate Gly-Pro-AMC), DPPIV; type: biochemical; details: recombinant human DPPIV 0.1 nM, pH 7.5
Description: (§1) The specificity of the synthesized compounds for recombinant human dipeptidyl peptidase IV (DPPIV), fibroblast activation protein (FAP), or prolyl oligopeptidase (PREP) was expressed by their half-maximal inhibitory concentration (IC50) against the proteases. The specific steps were as follows: • 1) The synthesized compound was dissolved in DMSO to a final concentration of 100 mM. • a) For FAP assay: the test compound was diluted to a 1 mM solution using a buffer of 50 mM Tris, 140 mM NaCl at pH 7.5; • b) For DPPIV assay: the test compound was diluted to a 1 mM solution using a 25 mM Tris, 250 mM NaCl buffer at pH 7.5; • c) For PREP assay: the test compound was diluted to a 1 mM solution using a 140 mM NaCl buffer at pH 8.0. • 2) The prepared 1 mM test compound solutions were each serially diluted (1:10) with the corresponding buffers described above into one row of a 96-well plate. • 3) The substrate was prepared as a DMSO stock solution (FAP and PREP: 2.5 mM Z-Gly-Pro-AMC (VWR, Cat. No. 1-1145.0050BA) in DMSO; DPPIV: 100 mM Gly-Pro-AMC (VWR, Cat. No. 100042-646) in DMSO), and the stock solution of the substrate was subsequently diluted 20-fold using the corresponding buffer described above. • 4) The enzyme was diluted into an appropriate assay buffer. The final concentrations of DPPIV, FAP, and PREP enzymes should be 0.1, 1.2, and 0.6 nM, respectively. 180 µL were added to each well of columns 2-10 as required. Column 1 (A, B, C) was prepared using 200 µL of an appropriate analysis buffer as a control. Column 1 (D, E, F, G, H) was prepared with 20 µL of an appropriate assay buffer and 180 µL of the enzyme as the inhibitor-free control. • 5) Where appropriate, 20 µL of the test compound was added from the dilution plate prepared in step 2 to columns 2-10 of the assay plate. Each sample should be tested in triplicate. It was incubated at room temperature for 10 minutes, with the plate being shaken for the first two minutes. • 6) 10 µL of the 20x substrate prepared in step 3 was added to each well and incubated at room temperature for 15 minutes, with the plate being shaken for the first two minutes. • 7) Fluorescence was read at λex:380 and λem:460.

FAP protein = biological target: T1, FAP protein (Homo sapiens, UniProt Q12884); assay: Biacore (SPR) test of compound affinity to FAP protein; details: Biacore 8K, SA chip, 15 °C, single cycle, 1:1 binding model; pKD = -LogKD
T1 construct: purchased Sinobiological
T1 sequence (Q12884 1-760): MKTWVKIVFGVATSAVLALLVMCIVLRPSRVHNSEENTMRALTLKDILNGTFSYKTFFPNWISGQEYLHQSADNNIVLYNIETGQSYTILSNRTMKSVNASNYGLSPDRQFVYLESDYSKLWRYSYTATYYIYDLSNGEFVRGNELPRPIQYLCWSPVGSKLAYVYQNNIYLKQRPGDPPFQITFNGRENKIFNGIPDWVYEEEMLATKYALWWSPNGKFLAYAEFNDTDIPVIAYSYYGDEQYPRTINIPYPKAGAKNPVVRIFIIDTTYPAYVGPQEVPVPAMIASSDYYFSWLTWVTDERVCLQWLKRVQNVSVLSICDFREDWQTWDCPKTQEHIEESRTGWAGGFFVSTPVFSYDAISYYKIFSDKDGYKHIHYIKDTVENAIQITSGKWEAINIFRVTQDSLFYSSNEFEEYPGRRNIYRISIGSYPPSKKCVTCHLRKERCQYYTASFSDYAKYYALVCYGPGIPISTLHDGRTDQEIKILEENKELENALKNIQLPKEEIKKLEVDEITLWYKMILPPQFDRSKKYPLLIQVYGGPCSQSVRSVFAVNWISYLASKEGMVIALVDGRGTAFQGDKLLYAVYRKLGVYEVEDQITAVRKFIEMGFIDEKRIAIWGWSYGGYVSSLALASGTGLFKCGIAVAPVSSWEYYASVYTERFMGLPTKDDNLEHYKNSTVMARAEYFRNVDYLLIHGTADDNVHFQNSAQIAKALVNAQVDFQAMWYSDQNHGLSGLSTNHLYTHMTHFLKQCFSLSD

[2] = biological target: T2, prolyl oligopeptidase (PREP) (Homo sapiens, UniProt P48147); assay: Protease inhibition selectivity assay (fluorogenic substrate Z-Gly-Pro-AMC), PREP; type: biochemical; details: recombinant human PREP 0.6 nM, pH 8.0
T2 sequence (P48147 1-710): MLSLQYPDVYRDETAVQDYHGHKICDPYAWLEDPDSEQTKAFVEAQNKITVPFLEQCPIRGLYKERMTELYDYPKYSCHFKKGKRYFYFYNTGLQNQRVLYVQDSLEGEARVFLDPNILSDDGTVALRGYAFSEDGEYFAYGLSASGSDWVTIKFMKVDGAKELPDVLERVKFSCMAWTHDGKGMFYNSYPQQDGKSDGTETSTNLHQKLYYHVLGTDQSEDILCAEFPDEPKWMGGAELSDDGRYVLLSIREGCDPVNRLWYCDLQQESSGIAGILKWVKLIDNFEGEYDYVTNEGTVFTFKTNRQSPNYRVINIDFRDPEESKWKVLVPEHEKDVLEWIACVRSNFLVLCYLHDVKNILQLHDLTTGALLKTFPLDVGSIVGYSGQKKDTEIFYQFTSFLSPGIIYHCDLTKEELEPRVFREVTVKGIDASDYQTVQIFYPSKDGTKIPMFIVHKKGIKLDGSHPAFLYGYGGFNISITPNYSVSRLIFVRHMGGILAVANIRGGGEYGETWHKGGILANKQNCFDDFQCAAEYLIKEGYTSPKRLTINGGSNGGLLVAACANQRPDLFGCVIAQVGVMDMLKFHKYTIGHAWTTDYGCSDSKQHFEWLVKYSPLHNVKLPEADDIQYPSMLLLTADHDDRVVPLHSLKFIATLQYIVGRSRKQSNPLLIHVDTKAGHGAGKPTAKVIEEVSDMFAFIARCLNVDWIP
Description: as §1

[3] = biological target: T3, fibroblast activation protein (FAP) (Homo sapiens, UniProt Q12884); assay: Protease inhibition selectivity assay (fluorogenic substrate Z-Gly-Pro-AMC), FAP; type: biochemical; details: recombinant human FAP […], pH 7.5
T3 sequence (Q12884 1-760): T1 sequence (Q12884 1-760)
Description: as §1

Sequence of dipeptidyl peptidase IV (DPPIV) (P27487 whole entry): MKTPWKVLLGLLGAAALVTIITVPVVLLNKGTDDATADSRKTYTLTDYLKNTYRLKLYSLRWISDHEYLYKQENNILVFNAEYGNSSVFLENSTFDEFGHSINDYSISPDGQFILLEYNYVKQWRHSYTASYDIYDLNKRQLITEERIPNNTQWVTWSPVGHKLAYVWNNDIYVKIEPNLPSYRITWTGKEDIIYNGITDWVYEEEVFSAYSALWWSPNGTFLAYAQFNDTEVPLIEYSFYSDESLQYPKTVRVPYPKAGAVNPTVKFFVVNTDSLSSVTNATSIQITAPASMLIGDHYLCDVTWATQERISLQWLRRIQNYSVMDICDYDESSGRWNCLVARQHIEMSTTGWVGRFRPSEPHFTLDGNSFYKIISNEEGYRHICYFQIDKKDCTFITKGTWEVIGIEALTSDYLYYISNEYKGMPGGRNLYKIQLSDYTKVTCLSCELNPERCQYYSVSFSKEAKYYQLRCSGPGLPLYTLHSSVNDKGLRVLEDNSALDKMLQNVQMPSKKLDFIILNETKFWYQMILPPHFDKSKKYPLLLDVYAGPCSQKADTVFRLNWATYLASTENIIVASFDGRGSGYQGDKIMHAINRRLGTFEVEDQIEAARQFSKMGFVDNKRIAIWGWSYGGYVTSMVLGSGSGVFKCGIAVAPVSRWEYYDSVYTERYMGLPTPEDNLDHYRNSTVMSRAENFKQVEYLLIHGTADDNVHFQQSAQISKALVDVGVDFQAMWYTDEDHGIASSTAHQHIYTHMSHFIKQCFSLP

SMILES	pIC50 (DPPIV) [1]	pKD (FAP) (FAP protein)	pIC50 (PREP) [2]	pIC50 (FAP) [3]
CCCCNC(=O)N[C@H]1CSCc2cccc(c2)CSC[C@@H](C(=O)N[C@@H](CCC(=O)NCCCN2CCN(C(=O)CN3CCN(CC(=O)O)CCN(CC(=O)O)CCN(CC(=O)O)CC3)CC2)C(=O)O)NC(=O)[C@H](Cc2ccccc2)NC(=O)[C@H](CCC(N)=O)NC(=O)[C@H]([C@@H](C)O)NC(=O)[C@@H]2CCCN2C(=O)[C@@H]2CCN2C1=O [JHDC48, nBu-urea-[Cys(3MeBn)-hhy39-Pro-Thr-Gln-Phe-Cys]-Glu-(aminopropylpiperazine-DOTA)-OH]	D (D: pIC50<6)	B (B: 7<pKD<8)	D (D: pIC50<6)	A (A: pIC50 >8)
CCCCNC(=O)N[C@H]1CSCc2cccc(c2)CSC[C@@H](C(=O)N[C@@H](CCNC(=O)CCCCCCCNC(=O)CN2CCN(CC(=O)O)CCN(CC(=O)O)CCN(CC(=O)O)CC2)C(=O)O)NC(=O)[C@H](CC2CCCCC2)NC(=O)[C@H](CCC(N)=O)NC(=O)[C@H]([C@@H](C)O)NC(=O)[C@@H]2CCCN2C(=O)[C@@H]2CCN2C1=O [JHDC53, nBu-urea-[Cys(3MeBn)-hhy39-Pro-Thr-Gln-hhy34-Cys]-DABA-(AOA-DOTA)-OH] ({NHBu-CO}-C[Aze]PTQ[Cha]C[Dab]([Aoc-DOTA])-OH; linker 1-7 via mXylylene)	D (D: pIC50<6)	B (B: 7<pKD<8)	D (D: pIC50<6)	A (A: pIC50 >8)
CCCCNC(=O)N[C@H]1CSCc2cccc(c2)CSC[C@@H](C(=O)N[C@@H](CCNC(=O)CNC(=O)CN2CCN(CC(=O)O)CCN(CC(=O)O)CCN(CC(=O)O)CC2)C(=O)O)NC(=O)[C@H](CC2CCCCC2)NC(=O)[C@H](CCC(N)=O)NC(=O)[C@H]([C@@H](C)O)NC(=O)[C@@H]2CCCN2C(=O)[C@@H]2CCN2C1=O [JHDC56, nBu-urea-[Cys(3MeBn)-hhy39-Pro-Thr-Gln-hhy34-Cys]-DABA-(Gly-DOTA)-OH] ({NHBu-CO}-C[Aze]PTQ[Cha]C[Dab]([Gly-DOTA])-OH; linker 1-7 via mXylylene)	D (D: pIC50<6)	A (A: pKD >8)	D (D: pIC50<6)	A (A: pIC50 >8)
